Results published in US20120189541A1 (AbbVie / Abbott, published 2012).

T1: Recombinant Human IL-1α (human, UniProt P01583 113-271)
T1 construct: Bought recombinant protein; Biotinylated in the capture ELISA; also called hIL-1α; IL-1 alpha
T1 sequence (looked up): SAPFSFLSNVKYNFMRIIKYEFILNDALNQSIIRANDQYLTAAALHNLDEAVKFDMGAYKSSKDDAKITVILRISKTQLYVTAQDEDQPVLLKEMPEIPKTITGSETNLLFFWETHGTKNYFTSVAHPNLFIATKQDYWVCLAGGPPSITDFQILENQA


Experiments:
Recombinant Human IL-1β [1] = target: T2, Recombinant Human IL-1β (human, UniProt P01584 117-269); test: cell-based or functional assay
Recombinant Human IL-1β [2] = target: T2, Recombinant Human IL-1β; test: SPR (BIACORE), human antigen
Description: (§1) The BIACORE assay (Biacore, Inc, Piscataway, N.J.) determines the affinity of antibodies or DVD-Ig molecule with kinetic measurements of on-rate and off-rate constants. Binding of antibodies or DVD-Ig molecule to a target antigen (for example, a purified recombinant target antigen) is determined by surface plasmon resonance-based measurements with a Biacore® 1000 or 3000 instrument (Biacore® AB, Uppsala, Sweden) using running HBS-EP (10 mM HEPES [pH 7.4], 150 mM NaCl, 3 mM EDTA, and 0.005% surfactant P20) at 25° C. All chemicals are obtained from Biacore® AB (Uppsala, Sweden) or otherwise from a different source as described in the text. For example, approximately 5000 RU of goat anti-mouse IgG, (Fcγ), fragment specific polyclonal antibody (Pierce Biotechnology Inc, Rockford, Ill.) diluted in 10 mM sodium acetate (pH 4.5) is directly immobilized across a CM5 research grade biosensor chip using a standard amine coupling kit according to manufacturer's instructions and procedures at 25 μg/ml. Unreacted moieties on the biosensor surface are blocked with ethanolamine. Modified carboxymethyl dextran surface in flowcell 2 and 4 is used as a reaction surface. Unmodified carboxymethyl dextran without goat anti-mouse IgG in flow cell 1 and 3 is used as the reference surface. For kinetic analysis, rate equations derived from the 1:1 Langmuir binding model are fitted simultaneously to association and dissociation phases of all eight injections (using global fit analysis) with the use of Biaevaluation 4.0.1 software. Purified antibodies or DVD-Ig molecule are diluted in HEPES-buffered saline for capture across goat anti-mouse IgG specific reaction surfaces. Antibodies or DVD-Ig molecule to be captured as a ligand (25 μg/ml) are injected over reaction matrices at a flow rate of 5 μl/min. The association and dissociation rate constants, kₒₙ (M⁻¹s⁻¹) and koff (s⁻¹) are determined under a continuous flow rate of 25 μl/minute. Rate constants are derived by making kinetic binding measurements at different antigen concentrations ranging from 10-200 nM. The equilibrium dissociation constant (M) of the reaction between antibodies or DVD-Ig molecules and the target antigen is then calculated from the kinetic rate constants by the following formula: KD=koff/kₒₙ. Binding is recorded as a function of time and kinetic rate constants are calculated.

Recombinant Human IL-1α [3] = target: T1, Recombinant Human IL-1α; test: SPR (BIACORE), human antigen
Description: as §1

Recombinant Human IL-1α [4] = target: T1, Recombinant Human IL-1α; test: cell-based or functional assay
Recombinant Human IL-1β [5] = target: T2, Recombinant Human IL-1β; test: capture ELISA: DVD-Ig captured by anti-human Fc, biotinylated antigen titrated; N-terminal VD
Description: (§2) Plates were washed five times in washing buffer (PBS containing 0.05% Tween 20) and blocked for 1 hour at 25° C. with 200 μl per well superblock blocking buffer (Thermo scientific, #37515). Blocking buffer was removed, and 2 μg/ml of each antibody or DVD-Ig molecule in PBS containing 10% superblock, 0.5% Tween-20 was added to the wells at 100 μl per well and incubated at 25° C. for 1 hour. The wells were washed five times in 1×PBST, and 1 μg/ml biotinylated antigen was titrated at 1:6 serial dilutions (for a range of μg to pg in PBS containing 10% superblock, 0.05% tween 20). Each dilution of antigen was then added to the plates and incubated for 1 hour at 25° C. The wells were washed five times in 1×PBST and incubated for 1 hour at 25° C. with polyHRP streptavidin (KPL #474-3000, Gaithersburg, Md.). The wells were washed five times in 1×PBST, and 100 μl of ULTRA-TMB ELISA (Pierce, Rockford, Ill.) were added per well. Following color development the reaction was stopped with 1N HCL and absorbance at 450 nm is measured.

Recombinant Human IL-1α [6] = target: T1, Recombinant Human IL-1α; test: capture ELISA: DVD-Ig captured by anti-human Fc, biotinylated antigen titrated; C-terminal VD
Description: as §2

Binder | Human IL-1β Neutralization Assay EC50 (IL-1 induced hIL-8, MRC-5 cells) (Recombinant Human IL-1β [1]) | Kd (Recombinant Human IL-1β [2]) | koff (Recombinant Human IL-1β [2]) | kon (Recombinant Human IL-1β [2]) | Kd (Recombinant Human IL-1α [3]) | koff (Recombinant Human IL-1α [3]) | kon (Recombinant Human IL-1α [3]) | Human IL-1α Neutralization Assay EC50 (IL-1 induced hIL-8, MRC-5 cells) (Recombinant Human IL-1α [4]) | EC50 (Recombinant Human IL-1β [5]) | EC50 (Recombinant Human IL-1α [6])
1B12.1-SS-3D12r16 (bispecific antibody, human IgG1, kappa, DVD-Ig, outer domain anti-IL-1β, inner domain anti-IL-1α, short linkers) heavy: EVQLQESGPGLVKPSETLSLTCTVSGFSLSDYGVSWIRQPPGKGLEWLGLIWGGGDTYYNSPLKSRLTISKDNSKSQVSLKLSSVTAADTAVYYCAKQRTLWGYDLYGMDYWGQGTLVTVSSASTKGPEVQLVQSGAEVKKPGASVKVSCKASGYTFKYYGMNWVRQAPGQGLERMGWINTYTGQSTYADDFKGRVTFTLDTSTSTAYMELSSLRSEDTAVYYCARDIYYYGSDFAMDYWGQGTTVTVSSASTKGPSVFPLAPSSKSTSGGTAALGCLVKDYFPEPVTVSWNSGALTSGVHTFPAVLQSSGLYSLSSVVTVPSSSLGTQTYICNVNHKPSNTKVDKKV[letters of human IgG1 Fc with changes not shown] light: DTQVTQSPSSLSASVGDRVTITCITSTDIDVDMNWYQQKPGKPPKLLISQGNTLRPGVPSRFSSSGSGTDFTFTISSLQPEDFATYYCLQSDNLPLTFGQGTKLEIKRTVAAPDIQMTQSPSSLSASVGDRVTITCRASQDISNMLNWYQQKPGKAPKLLIYYTSRLKPGVPSRFSGSGSGTDYTFTISSLQPEDIATYFCQQGKTAPYTFGQGTKLEIKRTVAAPSVFIFPPSDEQLKSGTASVVCLLNNFYPREAKVQWKVDNALQSGNSQESVTEQDSKDSTYSLSSTLTLSKADYEKHKVYACEVTHQGLSSPVTKSFNRGEC | 2.05 nM | 0.355 nM | 0.0011 s⁻¹ | 3.08e+06 M⁻¹ s⁻¹ | 0.12 nM | 1.33e-05 s⁻¹ | 111000 M⁻¹ s⁻¹ | 0.0307 nM | 0.0409 nM | 0.0087 nM
1B12.3-SS-3D12r16 (bispecific antibody, human IgG1, kappa, DVD-Ig, outer domain anti-IL-1β, inner domain anti-IL-1α, short linkers) heavy: EVQLQESGPGLVKPSETLSLTCTVSGFSLSDYGVSWIRQPPGKGLEWLGLIWGGGDTYYNSPLKSRLTISKDNSKSQVSLKLSSVTAADTAVYYCAKQRTLWGYDLYGMDYWGQGTLVTVSSASTKGPEVQLVQSGAEVKKPGASVKVSCKASGYTFKYYGMNWVRQAPGQGLERMGWINTYTGQSTYADDFKGRVTFTLDTSTSTAYMELSSLRSEDTAVYYCARDIYYYGSDFAMDYWGQGTTVTVSSASTKGPSVFPLAPSSKSTSGGTAALGCLVKDYFPEPVTVSWNSGALTSGVHTFPAVLQSSGLYSLSSVVTVPSSSLGTQTYICNVNHKPSNTKVDKKV[letters of human IgG1 Fc with changes not shown] light: DTVVTQSPAFLSVTPGEKVTITCITSTDIDVDMNWYQQKPDQPPKLLISQGNTLRPGVPSRFSSSGSGTDFTFTISSLEAEDAATYYCLQSDNLPLTFGQGTKLEIKRTVAAPDIQMTQSPSSLSASVGDRVTITCRASQDISNMLNWYQQKPGKAPKLLIYYTSRLKPGVPSRFSGSGSGTDYTFTISSLQPEDIATYFCQQGKTAPYTFGQGTKLEIKRTVAAPSVFIFPPSDEQLKSGTASVVCLLNNFYPREAKVQWKVDNALQSGNSQESVTEQDSKDSTYSLSSTLTLSKADYEKHKVYACEVTHQGLSSPVTKSFNRGEC | 1.74 nM | 0.315 nM | 0.00117 s⁻¹ | 3.7e+06 M⁻¹ s⁻¹ | < 0.023 nM | < 1e-06 s⁻¹ | 43900 M⁻¹ s⁻¹ | 0.0687 nM | 0.0352 nM | 0.0208 nM
1B12.6-SS-3D12r16 (bispecific antibody, human IgG1, kappa, DVD-Ig, outer domain anti-IL-1β, inner domain anti-IL-1α, short linkers) heavy: EVQLVESGGGLVQPGGSLRLSCAVSGFTLSDYGVSWIRQAPGKGLEWLGLIWGGGDTYYNSPLKSRLTISKDNSKSTVYLQMNSLRAEDTAVYYCAKQRTLWGYDLYGMDYWGQGTLVTVSSASTKGPEVQLVQSGAEVKKPGASVKVSCKASGYTFKYYGMNWVRQAPGQGLERMGWINTYTGQSTYADDFKGRVTFTLDTSTSTAYMELSSLRSEDTAVYYCARDIYYYGSDFAMDYWGQGTTVTVSSASTKGPSVFPLAPSSKSTSGGTAALGCLVKDYFPEPVTVSWNSGALTSGVHTFPAVLQSSGLYSLSSVVTVPSSSLGTQTYICNVNHKPSNTKVDKKV[letters of human IgG1 Fc with changes not shown] light: ETTVTQSPSSLSASVGDRVTITCITSTDIDVDMNWYQQKPGKPPKLLISQGNTLRPGVPSRFSSSGSGTDFTFTISSLQPEDFATYYCLQSDNLPLTFGQGTKLEIKRTVAAPDIQMTQSPSSLSASVGDRVTITCRASQDISNMLNWYQQKPGKAPKLLIYYTSRLKPGVPSRFSGSGSGTDYTFTISSLQPEDIATYFCQQGKTAPYTFGQGTKLEIKRTVAAPSVFIFPPSDEQLKSGTASVVCLLNNFYPREAKVQWKVDNALQSGNSQESVTEQDSKDSTYSLSSTLTLSKADYEKHKVYACEVTHQGLSSPVTKSFNRGEC | 2.58 nM | 0.626 nM | 0.00184 s⁻¹ | 2.93e+06 M⁻¹ s⁻¹ | < 0.0178 nM | < 1e-06 s⁻¹ | 56200 M⁻¹ s⁻¹ | 0.0648 nM | 0.0651 nM | 0.0099 nM
